Experimental data reported in PubChem BioAssay AID504466 (National Center for Advancing Translational Sciences (NCATS), 2011).
Out of some 330,000 compounds screened, about 4,200 (1.3%) were called active. The inconclusive results got no clear call from the source; some entries with a clear call stand among them for comparison. Calls come from the whole dose curve; as a rule, active = well fitted activation curve with a large enough effect; inconclusive = small, poorly fitted or top-dose-only effect; inactive = no such curve, though single readings can be large or run the other way. A potency beside an inconclusive call is a rough fit, not a confirmed value.

test: qHTS screen for small molecules that induce genotoxicity in human embryonic kidney (HEK293T) cells expressing luciferase-tagged ELG1; conditions: HEK293T ELG1-luciferase reporter, luminescence, 16 h; series mostly up to 46 µM; activity change, positive = activation: at the top concentration; note: nearly all actives have a fitted effect of over 60% in size; for activity change, positive = activation: % of control where 0% means no effect
In short: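 Reporter readout depends on ELG1 protein level, which increases with genetic stress. After 16 hr compound exposure at 37 °C, luciferase activity was quantified using ONE-Glo.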
Potency is the fitted concentration of half-maximal effect; tags give direction and shape of the fitted curve.

| SMILES | Potency | activity change, positive = activation |
| --- | --- | --- |
| COC(=O)c1ccc(/C=C(\C#N)c2ccccn2)cc1 | active: 2.59 µM |  |
| N#Cc1c(N2CCCC2)nc(N)c2c(N)nc(N3CCCC3)cc12 |  | inactive: 12.6% |
| Cc1ccc(NC(=O)c2ccco2)c(NC(=O)c2ccccc2)c1 |  | inactive: -1.35% |
| CC(=O)Nc1cc2nn(-c3ccccc3)nc2cc1Cl | active: 1.3 µM |  |
| O=C(OCC(=O)N1CCCCC1)c1ccc2ccccc2n1 |  | inactive: -0.588% |
| CNc1ncc(C(=O)c2ccc(Cl)cc2)s1 | inconclusive: 5.17 µM [activator, partial curve] |  |
| CCN(CC(=O)Nc1ccc2c(c1)OCCO2)C(=O)/C=C/c1cccc(OC)c1OC | inconclusive: 29.1 µM [activator, single point] |  |
| Cc1c(CCC(=O)N[C@@H](CCCNC(N)=O)C(=O)O)c(=O)oc2cc3oc4c(c3cc12)CCCC4 |  | inactive: 7.17% |
| Clc1ccc(-c2cnc3ccccc3n2)cc1 | inconclusive: 10.3 µM [activator, partial curve] |  |
| Cn1c(C(=O)NCCN2CCCCCC2)cc2c(=O)n(C)c3ccccc3c21 | inconclusive: 25.9 µM [activator, partial curve, poor fit] |  |
| COc1ccc(OC)c(NC(=O)CSc2nc3scc(C)c3c(=O)[nH]2)c1 | inconclusive: 3.66 µM [activator, full curve] |  |
| COc1cc([N+](=O)[O-])ccc1NC(=S)NNC(=O)CCC(=O)Nc1ccccc1Cl | active: 9.2 µM |  |
| CCCCc1nc2cc(C(=O)N3CCCC3)ccc2o1 | inconclusive: 16.4 µM [activator, partial curve, poor fit] |  |
| O=C(Nc1cnc2ccccc2c1)N1CCOCC1 | inconclusive: 13 µM [activator, partial curve] |  |
| CCCC(=O)Nc1ccc2nn(-c3ccc(OC)cc3)nc2c1 | inconclusive: 8.2 µM [activator, partial curve] |  |
| COc1ccc(/C=N/NC(=O)c2ccc3c(c2)OCO3)cc1 |  | inactive: 9.66% |
| Fc1ccc(/C=C2\CCCC3=C2Nc2ncnn2C3c2ccc(F)cc2)cc1 (stereo unspecified) |  | inactive: -2.53% |
| CC1CCC/C(=C\Nc2ccc(O)cc2)C1=O (stereo unspecified) | active: 18.4 µM |  |
| CN(C)CCCNS(=O)(=O)c1cc(Cl)ccc1Cl | active: 18.4 µM |  |
| COCCNc1c(-c2ccc(OC)c(OC)c2)nc2ccc(Cl)cn12 |  | inactive: -6.04% |
| COc1ccc(-c2noc(-c3cccnc3)n2)cc1OC | inconclusive: 20.6 µM [activator, partial curve] |  |
| COc1ccc(/C=N/NC(=O)c2ccn[nH]2)cc1CSc1ccccn1 | inconclusive: 14.6 µM [activator, partial curve, poor fit] |  |
| Cc1cccc2c1ncc1c(=O)n(-c3ccccc3)[nH]c12 | inconclusive: 9.2 µM [activator, partial curve] |  |
| CC1CCCC(NC(=O)COC(=O)c2ccc3ncsc3c2)C1C (stereo unspecified) |  | inactive: 4.02% |
| O=[N+]([O-])c1ccc([N+](=O)[O-])c(Nc2ccc(N3CCOCC3)cc2)c1 |  | inactive: -1.31% |
| COC(=O)c1ccc(NN=Nc2ccc(C)cc2)cc1 | inconclusive: 9.2 µM [activator, partial curve] |  |

| SMILES | Potency | activity change, positive = activation |
| --- | --- | --- |
| CSc1ccccc1N=Cc1nc(-c2ccccc2)oc1O | inconclusive: 20.6 µM [activator, partial curve, poor fit] |  |
| COc1ccc(NC(=O)COC(=O)C2CC2)c(OC)c1 |  | inactive: 2.36% |
| Cc1cccc2nc(-c3cccc(NC(=O)Cc4ccccc4)c3)cn12 |  | inactive: -7.49% |
| Cc1noc(C)c1COc1ccc(C(=O)OCC(=O)c2ccc3c(c2)OCCO3)cc1 |  | inactive: 11.8% |
| O=C(CN1C(=O)CS/C1=C\c1nc(-c2ccc(Cl)cc2)cs1)Nc1cccnc1Cl | inconclusive: 25.9 µM [activator, partial curve, poor fit] |  |
| COc1ccc2nc(N(Cc3ccccc3)C(=O)CCNC(C)=O)sc2c1 | inconclusive: 25.9 µM [activator, single point] |  |
| O=C(COc1ccc(Cl)cc1Cl)NCc1ccco1 | inconclusive: 13 µM [activator, partial curve, poor fit] |  |
| Cc1cccc(/C=C/c2nc3ccccc3c(=O)[nH]2)c1 | active: 8.2 µM |  |
| Cc1cccc(-c2cc3c(N=O)c4ccccc4c-3n[nH]2)c1 | inconclusive: 0.517 µM [activator, full curve] |  |
| Cc1ccc(Nc2ncnc(-n3cccc3)n2)cc1Cl | inconclusive: 4.11 µM [activator, partial curve, poor fit] |  |
| Oc1ccc(N=C/C=C/c2ccc(Br)cc2)cc1-c1nc2ccccc2s1 | inconclusive: 18.4 µM [activator, single point] |  |
| Cn1/c(=N/N=C/c2ccc([N+](=O)[O-])cc2)sc2ccccc21 | inconclusive: 16.4 µM [activator, partial curve, poor fit] |  |
| Cc1ccc(NC(=O)CSc2ncccn2)c([N+](=O)[O-])c1 | inconclusive: 18.3 µM [activator, partial curve, poor fit] |  |
| CCn1c(C)csc1=NC(=O)c1ccccc1O | inconclusive: 10.3 µM [activator, partial curve] |  |
| CC(C)=CC(=O)Nc1ccc(OCc2ccccc2)cc1 | inconclusive: 14.6 µM [activator, partial curve] |  |
| O=C(Nc1cccnc1)c1cc2c(s1)-c1ccccc1OC2 |  | inactive: -1.12% |
| CCOc1ccc(NC(=S)NC(=O)c2cccnc2)c([N+](=O)[O-])c1 |  | inactive: -7.81% |
| COC(=O)c1ccccc1NC(=O)c1noc2c1CCC2 |  | inactive: 12.9% |
| O=C(NC1CCCCC1)c1ccc2c(c1)OCCO2 | active: 20.6 µM |  |
| CC(NC(=O)c1ccccc1NC(=O)c1ccco1)C(=O)O (stereo unspecified) | inconclusive: 16.4 µM [activator, partial curve] |  |
| O=C(CN1C(=O)NC2(CCCC2)C1=O)Oc1ccc2ccc(=O)oc2c1 |  | inactive: -2.46% |
| COc1cccc(/C=N/NC(=O)c2oc3nc(-c4ccccc4)cc(-c4ccco4)c3c2N)c1 |  | inactive: -9.69% |
| Cc1nc2nc(SCc3ccccc3)nn2c(C)c1C | inconclusive: 25.9 µM [activator, partial curve, poor fit] |  |
| O=C(NCCc1ccccn1)c1ccc(OC2CCN(Cc3ccccn3)CC2)cc1 | inconclusive: 23.1 µM [activator, single point] |  |
| Cc1ccsc1C(=O)NCCc1ccco1 | inconclusive: 20.6 µM [activator, partial curve, poor fit] |  |
| Cc1ccccc1NC(=O)Nc1ccc2c(c1)CCC2 | inconclusive: 4.61 µM [activator, full curve] |  |

| SMILES | Potency | activity change, positive = activation |
| --- | --- | --- |
| COc1cc(/C=N/N(C)c2ccccc2)cc(Cl)c1O |  | inactive: 11.8% |
| Cc1ccc(-n2cc(CN3CCNC(=O)CC3)c(-c3cccc(C)c3)n2)cc1 |  | inactive: -1.09% |
| O=C(O)CC1S/C(=N\N=C/c2ccccc2)N(c2ccc(O)cc2)C1=O (stereo unspecified) |  | inactive: 0.81% |
| CCCc1ccc(-c2ccc(F)c(N)c2)nc1 | inconclusive: 0.651 µM [activator, partial curve, poor fit] |  |
| CC(C)c1ccc(/C=C2\SC(=O)N(CC(=O)NCCCn3ccnc3)C2=O)cc1 | inconclusive: 5.17 µM [activator, partial curve, poor fit] |  |
| O=C1OC(c2ccccc2)=C/C1=C/N1CCCCC1 | inconclusive: 4.61 µM [activator, full curve] |  |
| CC(NC(=O)NC(=O)c1cccc([N+](=O)[O-])c1)C1CC1 (stereo unspecified) | inconclusive: 20.6 µM [activator, partial curve, poor fit] |  |
| O=C(N/N=C/c1ccccn1)c1cc(-c2ccc(Br)s2)[nH]n1 |  | inactive: -11.6% |
| COc1ccc(C(C)=O)cc1CN1C(=O)NC(c2ccccc2)(c2ccccc2)C1=O |  | inactive: -11.2% |
| CS(=O)(=O)N1CCc2cc(-c3csc(NC(=O)Cc4cccs4)n3)ccc21 |  | inactive: -22.1% |
| CC(C)[C@@H](CO)NC(=O)c1ccc2c3n(nc2c1)-c1ccccc1CO3 | inconclusive: 1.46 µM [activator, partial curve] |  |
| Cc1ccc(NC(=O)CN(Cc2ccco2)Cc2ccccc2O)cc1C | inconclusive: 6.51 µM [activator, partial curve, poor fit] |  |
| CN(C)c1ccc(/C=C/c2nnnn2-c2ccccc2)cc1 | inconclusive: 7.31 µM [activator, partial curve] |  |
| Cc1cccc(NC(=O)CCN2C(=O)c3ccccc3S2(=O)=O)c1C |  | inactive: -0.101% |
| Nc1nc(CSC(=S)N2CCCCC2)nc(Nc2ccccc2)n1 | inconclusive: 18.3 µM [activator, partial curve] |  |
| Cc1ccc(C)c(N2CC(C(=O)Nc3cc(C)on3)CC2=O)c1 (stereo unspecified) |  | inactive: 0.469% |
| CC(C)(C)c1csc(NC(=O)CS(=O)(=O)c2ccccc2)n1 | inconclusive: 18.3 µM [activator, partial curve, poor fit] |  |
| O=C1c2ccccc2C(=O)N1CCSC(=S)N1CCOCC1 | inconclusive: 13 µM [activator, partial curve] |  |
| O=C(CCCCCn1c(=S)[nH]c2cc3c(cc2c1=O)OCO3)N1CCN(C2CCCCC2)CC1 | inconclusive: 25.9 µM [activator, single point] |  |
| O=C(/C=C/c1c(F)cccc1Cl)c1ccc(F)cc1 |  | inactive: 1.55% |
| Cc1cccc(-n2cnc3cc(C(=O)N4CCCCC4)ccc32)c1 |  | inactive: 20.1% |
| Cc1cc(C)n(-c2nc3sc4c(c3c(=O)[nH]2)CCCC4)n1 | inconclusive: 9.2 µM [activator, partial curve] |  |
| O=C(Nc1nc(NC(=O)c2ccco2)n(-c2ccccc2)n1)c1ccccc1 | inconclusive: 32.6 µM [activator, partial curve, poor fit] |  |
| CCn1c(/C=C/c2c[nH]c3ccccc23)nc2ccccc2c1=O | active: 2.59 µM |  |
